# Data from patent US12435061B2 (priority 2020, dated 2025).
# Legend:
# [1] = tested on: Escherichia coli WP2 uvrA; assay: Bacterial mutation assay (reverse mutation), Escherichia coli; settings: WP2 uvrA, 1000 μg/pl
# [2] = tested on: Salmonella typhimurium TA1535, TA1537, TA98, TA100; assay: Bacterial mutation assay (reverse mutation), Salmonella typhimurium
# DS-Nh mouse model = assay: DS-Nh TRPV3 mutation genetic mouse model (Example 16); assay type: in vivo
# male CD-1 mice = settings: CD-1, mouse, in vivo, po, 90 min
# [3] = PK/toxicokinetics of KM-001 via IV and topical routes in minipig; settings: for AUC(0-inf) / C0 / Cmax / half-life / AUC(0-t) / Tmax: male, minipig, plasma, iv
compound,measurement,setting,value
O=C(c1ccc(F)cn1)N1CCC(c2ccc(-c3ccccc3C3CC3)cc2CO)C1 (centres unmarked) [KM-001],Mean of Plate counts (revertant colonies),[1]; with metabolic activation,35
same,Mean of Plate counts (revertant colonies),[1]; without metabolic activation,30
same,Mean of Plate counts (revertant colonies),"[2]; TA98, 1000 μg/pl, with metabolic activation",42
same,Mean of Plate counts (revertant colonies),"[2]; TA98, 1000 μg/pl, without metabolic activation",32
same,Mean of Plate counts (revertant colonies),"[2]; TA100, 1000 μg/pl, with metabolic activation",147
same,Mean of Plate counts (revertant colonies),"[2]; TA100, 1000 μg/pl, without metabolic activation",129
same,Mean of Plate counts (revertant colonies),"[2]; TA1535, 1000 μg/pl, with metabolic activation",16
same,Mean of Plate counts (revertant colonies),"[2]; TA1535, 1000 μg/pl, without metabolic activation",15
same,Mean of Plate counts (revertant colonies),"[2]; TA1537, 1000 μg/pl, with metabolic activation",17
same,Mean of Plate counts (revertant colonies),"[2]; TA1537, 1000 μg/pl, without metabolic activation",19
same,epidermis differentiation,DS-Nh mouse model,normalize epidermis differentiation
same,inflammation,DS-Nh mouse model,reduce inflammation
same,Plasma levels at sac,male CD-1 mice; 3 mg/kg,19.1 ± 5.8 ng/mL
same,Plasma levels at sac,male CD-1 mice; 10 mg/kg,56.9 ± 12.8 ng/mL
same,Plasma levels at sac,male CD-1 mice; 30 mg/kg,180 ± 35 ng/mL
same,CL/F,"[3]; IV 0.50 mg/kg, Day 0, male pig",24.67 mL/min/kg
same,Vz/F,"[3]; IV 0.50 mg/kg, Day 0, male pig",6.69 L/kg
same,CL/F,"[3]; IV 8.00 mg/kg, Day 1, male pig",29.83 mL/min/kg
same,Vz/F,"[3]; IV 8.00 mg/kg, Day 1, male pig",24.6 L/kg
same,AUC(0-inf),[3]; 0.5 mg/kg,337 ng·h/mL
same,C0,[3]; 0.5 mg/kg,552 ng/mL
same,Cmax,[3]; 0.5 mg/kg,418 ng/mL
same,half-life,[3]; 0.5 mg/kg,3.13 h
same,AUC(0-t),"[3]; 0.5 mg/kg, AUC0-t, IV 0.50 mg/kg, Day 0, male pig",275 ng·h/mL
same,Tmax,"[3]; 0.5 mg/kg, IV 0.50 mg/kg, Day 0, male pig",5 min
same,AUC(0-inf),[3]; 8 mg/kg,4460 ng·h/mL
same,C0,[3]; 8 mg/kg,2710 ng/mL
same,Cmax,[3]; 8 mg/kg,2190 ng/mL
same,half-life,[3]; 8 mg/kg,9.5 h
same,AUC(0-t),"[3]; 8 mg/kg, AUC0-24 h, IV 8.00 mg/kg, Day 1, male pig",3620 ng·h/mL
same,AUC(0-t),"[3]; 8 mg/kg, AUC0-t, IV 8.00 mg/kg, Day 1, male pig",3620 ng·h/mL
same,Tmax,"[3]; 8 mg/kg, IV 8.00 mg/kg, Day 1, male pig",5 min

# Where two headings read alike, the source gives them in different places.
